In PubChem BioAssay AID588342 (National Center for Advancing Translational Sciences (NCATS), 2011):
In all, about 360,000 compounds went through this assay and about 25,000 (6.9%) were called active. The inconclusive results got no clear call from the source; some entries with a clear call stand among them for comparison. Calls come from the whole dose curve; as a rule, active = well fitted inhibition curve with a large enough effect; inconclusive = small, poorly fitted or top-dose-only effect; inactive = flat fitted curve, though single readings scatter. Potencies beside an inconclusive call are fits to weak or partial responses and may not hold up.

The molecules below were run against Luciferin 4-monooxygenase (Photinus pyralis) (UniProt P08659) (assay: qHTS profiling assay for firefly luciferase inhibitor/activator using purifed enzyme and Km concentrations of substrates (counterscreen for miR-21 project)). Conditions: purified FLuc, luminescence inhibition; series mostly up to 57.5 µM.
Chain of UniProt P08659 (P08659 whole entry, looked up): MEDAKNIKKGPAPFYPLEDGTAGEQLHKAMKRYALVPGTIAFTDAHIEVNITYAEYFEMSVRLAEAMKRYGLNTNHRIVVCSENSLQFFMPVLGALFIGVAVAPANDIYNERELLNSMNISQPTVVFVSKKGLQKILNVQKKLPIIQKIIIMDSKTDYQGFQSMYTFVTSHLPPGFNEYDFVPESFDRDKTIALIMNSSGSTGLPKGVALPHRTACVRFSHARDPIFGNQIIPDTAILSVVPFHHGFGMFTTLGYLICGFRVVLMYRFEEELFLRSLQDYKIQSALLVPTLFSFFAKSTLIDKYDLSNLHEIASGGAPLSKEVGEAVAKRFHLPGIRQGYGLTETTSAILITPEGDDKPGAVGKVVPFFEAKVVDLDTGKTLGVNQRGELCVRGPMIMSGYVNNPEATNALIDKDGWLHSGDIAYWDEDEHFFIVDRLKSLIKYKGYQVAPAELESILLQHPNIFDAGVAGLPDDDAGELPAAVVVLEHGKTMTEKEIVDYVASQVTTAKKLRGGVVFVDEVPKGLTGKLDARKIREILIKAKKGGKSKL
How it was run: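 Biochemical qHTS of compounds, final roughly 60 µM downward over six points, against 10 nM purified firefly luciferase using Km concentrations of substrates (10 uM D-luciferin, 10 uM ATP) in Tris acetate pH 7.5 buffer; luminescence output.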
Note: nearly all actives have a fitted effect of over 55% in size.
Potency is the fitted concentration of half-maximal effect; tags give direction and shape of the fitted curve.
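Throughout, for activity change, negative = inhibition: plate controls were vehicle for no effect and reference inhibitor for full effect.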

Row | SMILES | Potency | activity change, negative = inhibition
1 | COc1cc(OC)cc(OC(=O)c2ccc3c(=O)n4c(nc3c2)CCC4)c1 | active: 15.1 µM | –
2 | O=C(NNC(=O)c1ccc(F)cc1F)c1ccc2c(c1)OCO2 | inconclusive: 26.9 µM [inhibitor, single point] | –
3 | O=C(CSc1ncccn1)c1ccccc1Br | inconclusive: 30.1 µM [inhibitor, partial curve, poor fit] | –
4 | O=C(/C=C/c1ccc(F)cc1)NCCC1=CCCCC1 | active: 15.1 µM | –
5 | CC(C)OC(=O)c1cc(C(=O)c2cc(Br)ccc2O)coc1=N | inconclusive: 37.9 µM [inhibitor, partial curve, poor fit] | –
6 | CCc1cc(=O)oc2c(C)c(OCC(=O)NCCN3CCOCC3)ccc12 | inactive | –
7 | COc1ccc(C(=O)c2sc3nc(-c4ccccc4)ccc3c2N)cc1 | inactive | –
8 | CC(C)(C)c1ccc(C(=O)Nn2cnnc2)cc1 | active: 23.9 µM | –
9 | COc1cc(C=C2C(=O)OC(C)(C)OC2=O)ccc1OCC(=O)Nc1ccccc1 | active: 10.7 µM | –
10 | COc1ccc(C(=O)NCc2nnc(SCC(=O)NO)n2Cc2ccccc2)cc1 | inactive | –
11 | CC(C)C(C(=O)O)N1C(=O)/C(=C/c2cccn2C)SC1=S (configuration not stated) | active: 21.3 µM | –
12 | CCc1ccc(NC(=O)CN2C(C(=O)OC)=C(c3ccccc3)c3ccccc3S2(=O)=O)cc1 | inactive | –
13 | O=C1C2=C(C(=O)c3ccccc31)C1O[C@](CCCCN3C(=O)c4ccccc4C3=O)(Cc3ccccc31)O2 | – | inactive: -0.216% [at 11.5 µM]
14 | OC(c1ccccc1)c1nc2ccccc2n1Cc1c(F)cccc1Cl (configuration not stated) | inactive | –
15 | O=C(COC(=O)CNC(=O)c1ccco1)NCCN1C(=O)CSC1=O | inactive | –
16 | Cc1ccc(S(=O)(=O)Oc2ccccc2/C=N/NC(=O)c2c(Cl)cnn2C)cc1 | inconclusive: 37.9 µM [inhibitor, partial curve, poor fit] | –
17 | CC(=O)NCCCc1c[nH]c2ccc(Cl)cc12 | inconclusive: 21.3 µM [inhibitor, single point] | –
18 | Cc1ccc(C(=O)Nc2ccc(CC(=O)O)cc2)o1 | inconclusive: 26.9 µM [inhibitor, single point] | –
19 | COc1ccccc1NC(=O)Cc1csc(NC(=O)c2ccccc2)n1 | inconclusive: 33.8 µM [inhibitor, partial curve, poor fit] | –
20 | C/C(=N/NS(=O)(=O)c1ccc(CC(C)C)cc1)c1ccncc1 | inactive | –
21 | O=C(O)c1ccccc1-c1nc2cc(Cl)ccc2c(=O)n1O | inconclusive: 13.5 µM [inhibitor, partial curve, poor fit] | –
22 | Cc1ccc(SCC(=O)c2c(C)nc3ccccn23)cc1 | inconclusive: 23.9 µM [inhibitor, partial curve, poor fit] | –
23 | Cc1ccccc1Nc1nc(N)nc(CSc2nnnn2C)n1 | inconclusive: 19 µM [inhibitor, single point] | –
24 | CCOc1ccc(-c2cc3c(=O)n(CC(=O)NCc4ccccc4)ccn3n2)cc1 | inconclusive: 0.107 µM [inhibitor, full curve, poor fit] | –

Row | SMILES | Potency | activity change, negative = inhibition
25 | COc1ccc(Cc2nnc(N=Nc3c(O)[nH]c4ccc(Br)cc34)[nH]c2=O)cc1 | inconclusive: 26.9 µM [inhibitor, single point] | –
26 | COC(=O)Cc1csc(Nc2ccccc2)n1 | inconclusive: 37.9 µM [inhibitor, partial curve, poor fit] | –
27 | c1ccc2c(c1)nc(Nc1ccc(N3CCCCC3)cc1)c1nncn12 | active: 4.78 µM | –
28 | CC(CNC(=O)COC(=O)c1cccs1)c1ccccc1 (configuration not stated) | inconclusive: 19 µM [inhibitor, single point] | –
29 | Cn1nnc2cc(C(=O)Nc3ccc4ccccc4c3)ccc21 | active: 1.9 µM | –
30 | O=C(O)c1ccc2c(c1)N(Cc1ccc(F)cc1)C(=O)c1ccccc1S2=O (configuration not stated) | inactive | –
31 | Cc1nc(NC(=O)c2ccc(Br)o2)ccc1Br | inconclusive: 21.3 µM [inhibitor, single point] | –
32 | CCN1C(=O)/C(=C/N(C)c2ccccc2)OC1=S | inconclusive: 30.1 µM [inhibitor, partial curve, poor fit] | –
33 | S=C(NCc1ccccc1)NNc1nc2ccccc2[nH]1 | inconclusive: 30.1 µM [inhibitor, single point] | –
34 | N#Cc1c(Cl)c(Cl)c2nnc(-c3ccc(Br)cc3)n2c1Cl | inconclusive: 21.3 µM [inhibitor, partial curve, poor fit] | –
35 | CC1=C(C(=O)Nc2cc(C(=O)NCCC(C)C)ccc2C)SCCO1 | inactive | –
36 | Cc1coc(=N)n1CC(=O)c1ccc(Cl)cc1 | inactive | –
37 | CN(C)NC(=S)NC1(C)CCS(=O)(=O)C1 (configuration not stated) | inactive | –
38 | CCOC(=O)c1ccc(NC(=S)Nc2ccc(Cl)cn2)cc1 | inactive | –
39 | Cc1ccc(CNC(=O)c2ccc(N3Cc4ccccc4Oc4ncccc43)s2)cc1 | inactive | –
40 | Cc1ccc(NC(=O)/C(=C/c2ccco2)c2ccccc2)c(C)c1 | inconclusive: 30.1 µM [inhibitor, single point] | –
41 | O=C(c1cc(COc2ccc(F)cc2F)on1)N1C[C@H]2CC[C@H]1C2 | inconclusive: 26.9 µM [inhibitor, single point] | –
42 | CC(C)c1nc(CN(C)C(=O)N[C@H](C(=O)N[C@@H](Cc2ccccc2)C[C@H](O)[C@H](Cc2ccccc2)NC(=O)OCc2cncs2)C(C)C)cs1 | inconclusive: 10.7 µM [inhibitor, partial curve, poor fit] | –
43 | Oc1c(C(c2ccc(Cl)cc2Cl)N2CCN(Cc3ccccc3)CC2)sc2nc(-c3ccco3)nn12 (configuration not stated) | inconclusive: 23.9 µM [inhibitor, single point] | –
44 | Nc1ccc(Oc2ccc3c(c2)C(=O)N(CC2CCCO2)C3=O)cc1 (configuration not stated) | active: 9.53 µM | –
45 | CN(C)c1ccc(-c2nc3cnccn3c2Nc2ccc3c(c2)OCCO3)cc1 | active: 10.7 µM | –
46 | CC(=O)c1cccc(NC(=O)c2cc3sc(Cl)cc3n2C)c1 | inconclusive: 1.9 µM [inhibitor, partial curve, poor fit] | –
47 | CCOC(=O)/C(=N\Nc1ccccc1)c1csc(Nc2ccc(C)cc2)n1 | inconclusive: 8.49 µM [inhibitor, partial curve] | –
48 | Cc1ccc(C(=O)c2coc3ccc(O)c(Cl)c23)cc1 | active: 19 µM | –

Row | SMILES | Potency | activity change, negative = inhibition
49 | CC1(C)Cc2nc3sc(C(=O)O)c(N)c3cc2CS1 | inconclusive: 16.9 µM [inhibitor, partial curve] | –
50 | N/C(=N\OC(=O)CCCOc1ccccc1)c1cccc(Br)c1 | inconclusive: 26.9 µM [inhibitor, partial curve, poor fit] | –
51 | COc1ccc(CCn2c(=N)c(C(=O)NCc3ccco3)cc3c(=O)n4ccccc4nc32)cc1 | inactive | –
52 | COc1cc(/C=N/n2cnnc2)ccc1OCc1ccc(C)cc1 | inconclusive: 23.9 µM [inhibitor, partial curve, poor fit] | –
53 | COc1ccc(/C=N/NC(=O)c2cccc(NC(=O)c3ccccc3Cl)c2)cc1OC | inconclusive: 8.49 µM [inhibitor, partial curve] | –
54 | CCC(=O)N(c1nnc(SCC(=O)Nc2ccc(N3CCOCC3)cc2)s1)C1CC1 | inconclusive: 23.9 µM [inhibitor, partial curve, poor fit] | –
55 | COc1cc(/C=C2/C(=N)N3C(c4ccccc4)=CSC3=NC2=O)ccc1OCC(=O)O | active: 26.9 µM | –
56 | Cc1ccccc1OCCSc1nc2ccc(NC(=O)c3ccco3)cc2s1 | inconclusive: 9.53 µM [inhibitor, partial curve, poor fit] | –
57 | COc1ccccc1CCC(=O)OCC(=O)Nc1c(C)nn(-c2ccccc2)c1C | inactive | –
58 | CC1CCN(C(=O)c2cc(-c3ccc(Cl)c(Cl)c3)on2)CC1 | inconclusive: 9.53 µM [inhibitor, partial curve] | –
59 | COC(=O)c1ccc(COC(=O)c2ccc(C)c(S(=O)(=O)N3CCCCC3)c2)cc1 | inactive | –
60 | Cc1cccc(OC(C)C(=O)N2CCN(Cc3ccc4c(c3)OCO4)CC2)c1 (configuration not stated) | inactive | –
61 | Cc1ccc2oc3nc(C)c(C(=O)Nc4cccc(C(F)(F)F)c4)cc3c(=O)c2c1 | inconclusive: 37.9 µM [inhibitor, partial curve, poor fit] | –
62 | COc1ccc(OCC(=O)Nc2cc(-c3nc4ccccc4o3)ccc2Cl)cc1 | inactive | –
63 | C=CCSc1nnc(-c2cc3c(-c4ccccc4)nn(C)c3s2)n1C | inconclusive: 23.9 µM [inhibitor, single point] | –
64 | Cc1ccc(S(=O)(=O)N(C)c2nc3ccccc3[nH]c2=S)cc1 | inconclusive: 26.9 µM [inhibitor, partial curve, poor fit] | –
65 | Cc1ccc(-c2cc(NC(=O)C(C)Oc3ccccc3F)on2)cc1 (configuration not stated) | inconclusive: 42.6 µM [inhibitor, partial curve, poor fit] | –
66 | CCCC(=O)Nc1nc2ccc3nc(C)sc3c2s1 | inconclusive: 13.5 µM [inhibitor, partial curve] | –
67 | CN(C)S(=O)(=O)c1cc(NC(=O)CN2CCOCC2)ccc1Cl | inactive | –
68 | Cc1ccc(CNC(=O)c2c[nH]n3c(=O)c(Cc4ccc(F)cc4Cl)c(C)nc23)cc1 | inconclusive: 26.9 µM [inhibitor, single point] | –
69 | CC(=O)c1ccc(-c2ccc(C(=O)N3CCN(c4ccc(F)cc4)CC3)o2)cc1 | inconclusive: 23.9 µM [inhibitor, single point] | –
70 | O=C(Nc1ccc2nc(N3CCOCC3)sc2c1)c1ccccc1 | inconclusive: 39.8 µM [inhibitor, single point] | –
71 | Clc1ccsc1-c1ccc2ccccc2n1 | active: 10.7 µM | –
72 | Cc1nc2sc3c(c2c(=O)n1/N=C/c1ccco1)CCCC3 | inconclusive: 26.9 µM [inhibitor, partial curve, poor fit] | –
